Results reported in PubChem BioAssay (NCATS).
“And” between values parts separate entries of the source, which are not always exact repeats. Identical values can stand only once. The shares of active, inactive and inconclusive entries below differ from those in the screen. For part of these data: Potencies of inconclusive entries are doubtful fits and often do not repeat. The source made the active and inactive calls. Unless noted, calls come from the whole dose curve; as a rule, active = well fitted curve in the direction sought with a large enough effect; inconclusive = small, poorly fitted or top-dose-only effect, or another doubt; inactive = no such curve, though single readings can be large; an effect the other way counts as inactive or inconclusive. *1 amine or outer side, *2 acyl side, *3 side chain or, on linkers, in order; H or OH if unused. Where a SMILES comes first, the peptide text is derived from it. Bridges are numbered along the chain shown (N, C = ends). Roman numbers before positions name the chains, in order. [ ]: non-standard residue; d: D form. Actinocin(9to1) = Cc1c2oc3c(C)ccc(C(=O)[*:1])c3nc-2c(C(=O)[*:2])c(N)c1=O; NMeV = CN[CH](C(=O)O)C(C)C; Sar = CNCC(=O)O

Tests used:
[1] = target: Cytochrome P450 2C9 (Homo sapiens) (UniProt P11712); assay: Cytochrome P450 family 2 subfamily C member 9 (CYP2C9) small molecule antagonists: luciferase biochemical (cell-free) qHTS assay (AID 1645842; active = well fitted curve in the direction sought with a large enough effect in the repeat runs; inconclusive = weak or mixed curves; inactive = no such curve, though single readings can be large; an effect the other way counts as inactive or inconclusive; note: nearly all actives have a fitted effect of over 55% in size)
Procedure, shortened: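 Luminescence, after 20 min with luciferin detection reagent, reflected CYP2C9 turnover during a 1 h NADPH-driven reaction at 37C. Enzyme-substrate mix contained 0.4% bovine serum albumin and was preincubated with compound 10 min at room temperature.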

[2] = qHTS of pediatric cancer cell lines to identify multiple opportunities for drug repurposing: Primary screen for DAOY cells (AID 1347090); details: DAOY medulloblastoma viability, CellTiter-Glo luminescence, 48 h; activity change, negative = cytotoxic: at 46 µM (top of the series); note: nearly all actives have a fitted effect of over 55% in size;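 for activity change, negative = cytotoxic: plate controls were DMSO for no effect and bortezomib for full effect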
Procedure, shortened: (§1)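 Cell viability, CellTiter-Glo luminescence; 500-1,000 cells/well, 8- or 11-point titration, 48 h compound exposure at 37 degrees C, 5% CO2. Controls: DMSO neutral, bortezomib 2.3 µM final as positive.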

[3] = qHTS of pediatric cancer cell lines to identify multiple opportunities for drug repurposing: Primary screen for SJ-GBM2 cells (AID 1347091)
Procedure, shortened: as §1

[4] = qHTS of pediatric cancer cell lines to identify multiple opportunities for drug repurposing: Primary screen for BT-37 cells (AID 1347094)
Procedure, shortened: (§2)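 Readout: CellTiter-Glo luminescence, 48 h treatment. Controls DMSO (neutral) and bortezomib 2.3 µM final (positive). Potency and efficacy taken from primary-screen concentration-response curves.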

[5] = qHTS of pediatric cancer cell lines to identify multiple opportunities for drug repurposing: Primary screen for NB-EBc1 cells (AID 1347095);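 for activity change, negative = cytotoxic: plate controls were DMSO neutral control for no effect and bortezomib for full effect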
Procedure, shortened: as §2

[6] = qHTS of pediatric cancer cell lines to identify multiple opportunities for drug repurposing: Primary screen for BT-12 cells (AID 1347101); note: nearly all actives have a fitted effect of over 25% in size
Procedure, shortened: (§3)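 Cells (500-1,000/well) rested 5 h, then received compounds for 48 h; metabolically active cells were measured by CellTiter-Glo luminescence. Final concentrations spanned up to 46 µM (MIPE, 11-point) or 0.59 nM-46 µM (NPC, 8-point) in primary screens, 11-point in follow-ups.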

[7] = qHTS of pediatric cancer cell lines to identify multiple opportunities for drug repurposing: Primary screen for MG 63 (6-TG R) cells (AID 1347105); details: MG 63 (6-TG R) viability, CellTiter-Glo, 48 h; activity change, negative = cytotoxic: at 46 µM (top of the series); note: nearly all actives have a fitted effect of over 50% in size; for activity change, negative = cytotoxic: % is set by controls: 0 for no effect and ±100 for the full control effect
Procedure, shortened: as §2

[8] = qHTS of pediatric cancer cell lines to identify multiple opportunities for drug repurposing: Primary screen for A673 cells (AID 1347092); details: A673 Ewing sarcoma viability, CellTiter-Glo ATP luminescence, 48 h; activity change, negative = cytotoxic: at 46 µM (top of the series); note: nearly all actives have a fitted effect of over 45% in size; for activity change, negative = cytotoxic: % is set by controls: 0 for no effect and ±100 for the full control effect
Procedure, shortened: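 Cells are plated, rested 5 h, dosed by pintool, incubated 48 h, then lysed with CellTiter-Glo and read by luminescence. DMSO is the neutral control; bortezomib at 2.3 uM final is the positive control.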

[9] = qHTS of pediatric cancer cell lines to identify multiple opportunities for drug repurposing: Primary screen for SK-N-SH cells (AID 1347098); note: nearly all actives have a fitted effect of over 65% in size
Procedure, shortened: as §3

[10] = qHTS of pediatric cancer cell lines to identify multiple opportunities for drug repurposing: Primary screen for NB1643 cells (AID 1347099); note: nearly all actives have a fitted effect of over 50% in size
Procedure, shortened: as §2

[11] = qHTS of pediatric cancer cell lines to identify multiple opportunities for drug repurposing: Primary screen for OHS-50 cells (AID 1347103); note: nearly all actives have a fitted effect of over 40% in size
Procedure, shortened: as §3

[12] = Primary qHTS for small molecule stabilizers of the endoplasmic reticulum resident proteome: Secreted ER Calcium Modulated Protein (SERCaMP) assay (AID 1508630); details: SH-SY5Y GLuc-SERCaMP (Gaussia luciferase released on ER calcium loss) secretion, thapsigargin, luminescence; activity change, negative = inhibition: at 38.4 µM (top of the series) unless noted
Procedure, shortened: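 GLuc-SERCaMP-expressing SH-SY5Y cells, pretreated 16 h with compound, are challenged with thapsigargin to empty ER calcium stores; after 4 h, coelenterazine is added directly to the medium and luminescence is imaged.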

[13] = target: Cytochrome P450 2D6 (Homo sapiens) (UniProt P10635); assay: Cytochrome P450 family 2 subfamily D member 6 (CYP2D6) small molecule antagonists: luciferase biochemical (cell-free) qHTS assay (AID 1645840; active = well fitted curve in the direction sought with a large enough effect in the repeat runs; inconclusive = weak or mixed curves; inactive = no such curve, though single readings can be large; an effect the other way counts as inactive or inconclusive; note: nearly all actives have a fitted effect of over 55% in size)
Procedure, shortened: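 P450-Glo luminescent screen: recombinant CYP2D6 enzyme–proluciferin substrate mix preincubated with compound 10 min at room temperature, then NADPH regeneration added for 1 h at room temperature. Detection reagent added for 20 min; luciferin light read as relative luminescence units.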

UISO = assay: qHTS assay to identify novel small-molecules to repurpose for Merkel cell carcinoma treatment (AID 1296009); details: MCC and control cell lines, CellTiter-Glo viability, 72 h; activity change, negative = cytotoxicity: at 46 µM (top of the series); note: nearly all actives have a fitted effect of over 60% in size
Procedure, shortened: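 After compound transfer in DMSO, plates were kept 72 hr at 37 degree celsius. Luminescent ATP signal from CellTiter-Glo served as viability measure, normalized against DMSO and no-cell controls.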

[14] = qHTS of pediatric cancer cell lines to identify multiple opportunities for drug repurposing: Primary screen for control Hh wild type fibroblast cells (AID 1347106); note: nearly all actives have a fitted effect of over 55% in size
Procedure, shortened: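 Viability after 48 h compound treatment at 37C, 500-1,000 cells/well, read as ATP luminescence with CellTiter-Glo. Primary screens used 11-point (MIPE, 0.78 nM-46 µM) or 8-point (NPC, 0.59 nM-46 µM) final concentrations; follow-up screens used 11-point dilutions.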

[15] = qHTS of pediatric cancer cell lines to identify multiple opportunities for drug repurposing: Primary screen for Rh41 cells (AID 1347108); note: nearly all actives have a fitted effect of over 70% in size
Procedure, shortened: as §2

[16] = qHTS to identify inhibitors of the type 1 interferon - major histocompatibility complex class I in skeletal muscle: primary screen against the NCATS Mechanism Interrogation Plate v5.0 (MIPE) Libary (AID 1347411); details: iHSKM cells + IFN-b, HiBiT-tagged MHC-I luminescence, 24 h; activity change, negative = inhibition: at 45.8 µM (top of the series); note: nearly all actives have a fitted effect of over 65% in size
Procedure, shortened: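 Cells were genome-edited human myoblasts carrying a HiBit tag on endogenous HLA-B. They were treated with IFN-beta (4.0 ng/ml) and titrated compounds (top 46 uM) for 24 hrs before lytic HiBiT detection.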
Potency is the fitted concentration of half-maximal effect; tags give direction and shape of the fitted curve.

Sequence of UniProt P11712 (P11712 whole entry, looked up): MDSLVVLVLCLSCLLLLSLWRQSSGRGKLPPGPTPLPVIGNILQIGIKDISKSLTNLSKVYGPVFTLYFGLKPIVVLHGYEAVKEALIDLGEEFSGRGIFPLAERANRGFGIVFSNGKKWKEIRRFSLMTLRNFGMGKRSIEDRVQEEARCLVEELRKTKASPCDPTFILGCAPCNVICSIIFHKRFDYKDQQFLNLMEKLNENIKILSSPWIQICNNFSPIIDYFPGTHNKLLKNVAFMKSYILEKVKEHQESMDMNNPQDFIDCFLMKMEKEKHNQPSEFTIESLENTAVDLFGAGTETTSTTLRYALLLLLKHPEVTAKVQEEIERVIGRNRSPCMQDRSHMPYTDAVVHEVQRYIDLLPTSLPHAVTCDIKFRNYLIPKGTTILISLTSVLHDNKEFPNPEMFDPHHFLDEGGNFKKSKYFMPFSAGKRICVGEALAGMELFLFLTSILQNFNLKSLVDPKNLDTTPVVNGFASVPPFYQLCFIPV
Sequence of UniProt P10635 (P10635 whole entry, looked up): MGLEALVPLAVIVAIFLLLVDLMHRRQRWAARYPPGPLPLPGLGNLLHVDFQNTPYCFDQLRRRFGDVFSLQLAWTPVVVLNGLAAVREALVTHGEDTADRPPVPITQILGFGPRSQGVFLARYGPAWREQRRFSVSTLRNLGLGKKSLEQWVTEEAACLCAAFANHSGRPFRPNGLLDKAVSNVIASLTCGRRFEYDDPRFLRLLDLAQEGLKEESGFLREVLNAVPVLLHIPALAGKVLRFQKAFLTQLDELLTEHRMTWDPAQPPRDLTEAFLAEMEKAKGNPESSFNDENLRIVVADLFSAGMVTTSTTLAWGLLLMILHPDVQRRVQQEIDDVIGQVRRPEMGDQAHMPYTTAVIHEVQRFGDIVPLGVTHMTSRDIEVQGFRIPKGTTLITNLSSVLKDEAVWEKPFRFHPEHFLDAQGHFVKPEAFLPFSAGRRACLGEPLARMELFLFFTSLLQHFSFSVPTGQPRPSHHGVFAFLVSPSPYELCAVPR

O=C(Nc1cccnn1)N1CCN(c2nccc(-c3ccc(F)c(F)c3)n2)CC1
inconclusive: Potency [1] 1.58 µM [inhibitor, full curve, poor fit]

CC(C)(C)NC(=O)[C@H]1CN(Cc2cccnc2)CCN1C[C@@H](O)C[C@@H](Cc1ccccc1)C(=O)N[C@H]1c2ccccc2C[C@H]1O
inconclusive: Potency [2] 37.2 µM [cytotoxic, single point] | Potency [3] 37.2 µM [cytotoxic, single point] | Potency [4] 27.3 µM [cytotoxic, single point] | Potency [5] 33.2 µM [cytotoxic, single point] | Potency [6] 27.3 µM [cytotoxic, partial curve] | Potency [7] 37.2 µM [cytotoxic, single point]

O=C(c1ccc(F)cc1)C1CCN(CCn2c(=S)[nH]c3ccccc3c2=O)CC1
active: Potency [8] 16.8 µM | Potency [13] 0.776 µM
inactive: Potency [5]
inconclusive: Potency [4] 17.4 µM [cytotoxic, partial curve, poor fit] | Potency [9] 15.4 µM [cytotoxic, partial curve] | Potency [10] 23.7 µM [cytotoxic, single point] | Potency [6] 24.6 µM [cytotoxic, single point] | Potency [11] 30.9 µM [cytotoxic, single point] | Potency [12] 11.2 µM [inhibitor, single point] and 28.2 µM [inhibitor, single point] | Potency [1] 27.5 µM [inhibitor, single point] | Potency (UISO) 33.5 µM [inhibitor, single point]

Cc1c2oc3c(C)ccc(C(=O)NC4C(=O)NC(C(C)C)C(=O)N5CCCC5C(=O)N(C)CC(=O)N(C)C(C(C)C)C(=O)OC4C)c3nc-2c(C(=O)NC2C(=O)NC(C(C)C)C(=O)N3CCCC3C(=O)N(C)CC(=O)N(C)C(C(C)C)C(=O)OC2C)c(N)c1=O (stereo not given) (I: TVP[Sar][NMeV] / II: TVP[Sar][NMeV]; ester I:1-I:C, II:1-II:C; linker I:N-II:N via Actinocin(9to1); configuration not given here)
inactive: Potency [5]
inconclusive: activity change, negative = cytotoxic [2] -103% | Potency [3] 0.0053 µM [cytotoxic, full curve, poor fit] | activity change, negative = cytotoxic [8] -101% | Potency [10] 5.9 µM [cytotoxic, partial curve, poor fit] | activity change, negative = cytotoxic [7] -49.2% | Potency [14] 13.2 µM [cytotoxic, partial curve, poor fit]
active: Potency [9] 0.001 µM | Potency [6] 0.001 µM | Potency [11] 0.001 µM | Potency [15] 0.001 µM | Potency [16] 0.114 µM
